Here are results for 45 molecules from paper PMC4336329 (PLoS ONE, 2015).

Screen size: about 310,000 compounds; about 2,200 (0.71%) showed an effect of 50% or more. The effect is printed as a negative number. The list shows a part of the results.

The target in the assay is human ether-à-go-go-related gene (hERG) potassium channel (human, UniProt Q12809). The assay can be described thus: primary screen, population patch clamp on CHO cells stably expressing hERG.
Sequence of human ether-à-go-go-related gene (hERG) potassium channel (Q12809 whole entry, looked up): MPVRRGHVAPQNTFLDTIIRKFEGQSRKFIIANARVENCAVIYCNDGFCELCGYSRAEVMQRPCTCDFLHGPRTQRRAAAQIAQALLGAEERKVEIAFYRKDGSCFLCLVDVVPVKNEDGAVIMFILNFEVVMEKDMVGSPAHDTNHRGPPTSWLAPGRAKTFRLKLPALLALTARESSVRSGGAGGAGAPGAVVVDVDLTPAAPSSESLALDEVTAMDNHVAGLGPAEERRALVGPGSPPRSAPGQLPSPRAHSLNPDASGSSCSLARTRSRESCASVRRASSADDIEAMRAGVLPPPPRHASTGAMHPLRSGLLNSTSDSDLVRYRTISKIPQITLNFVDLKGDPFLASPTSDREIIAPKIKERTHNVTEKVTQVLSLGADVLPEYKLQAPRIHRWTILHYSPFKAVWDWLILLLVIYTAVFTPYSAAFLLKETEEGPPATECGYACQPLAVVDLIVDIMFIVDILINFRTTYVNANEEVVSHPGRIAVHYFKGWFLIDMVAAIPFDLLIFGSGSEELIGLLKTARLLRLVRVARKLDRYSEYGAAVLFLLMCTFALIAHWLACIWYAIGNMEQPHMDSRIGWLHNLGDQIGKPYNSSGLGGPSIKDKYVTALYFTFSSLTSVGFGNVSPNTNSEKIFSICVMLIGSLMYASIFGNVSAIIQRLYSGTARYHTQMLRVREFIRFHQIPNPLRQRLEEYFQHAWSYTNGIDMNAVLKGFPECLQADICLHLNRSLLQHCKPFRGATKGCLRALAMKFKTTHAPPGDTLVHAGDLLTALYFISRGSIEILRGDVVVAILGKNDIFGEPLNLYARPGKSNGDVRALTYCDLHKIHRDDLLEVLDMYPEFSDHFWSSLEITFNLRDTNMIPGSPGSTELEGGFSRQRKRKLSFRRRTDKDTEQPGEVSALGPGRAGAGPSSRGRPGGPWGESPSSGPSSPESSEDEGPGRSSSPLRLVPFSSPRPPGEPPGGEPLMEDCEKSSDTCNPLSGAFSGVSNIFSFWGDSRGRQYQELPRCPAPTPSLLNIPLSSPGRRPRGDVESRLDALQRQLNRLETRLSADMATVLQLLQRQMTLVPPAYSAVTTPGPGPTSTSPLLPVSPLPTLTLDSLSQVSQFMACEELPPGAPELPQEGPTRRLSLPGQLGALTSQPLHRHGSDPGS
Turning to `S=C(NCCc1ccccc1)N/N=C/C1CCCCC1`, the “hERG current change (%, negative = inhibition) at 1uM” value is reported as 9.53%.

In the case of `COc1ccccc1NC1C=CS(=O)(=O)C1` (stereo not drawn), the “hERG current change (%, negative = inhibition) at 1uM” value was found to be 2.92%. For the molecule `O=C(COC(=O)[C@@H]1CCCN1S(=O)(=O)c1ccc(Cl)cc1)NC12CC3CC(CC(C3)C1)C2`, the “hERG current change (%, negative = inhibition) at 1uM” value is on record as 0.824%. As to `Cc1nnc(SCC(=O)NC(C)(C)C)n1NCc1ccc(Cl)cc1`, the “hERG current change (%, negative = inhibition) at 1uM” value is given as 1.77%. As for `CCOC(=O)CSCc1nc(-c2ccc(Cl)cc2)oc1C`, the figure is 11.5%; as for `CSCCC(NC(N)=O)C(=O)NCC1CCCCC1` (stereo not drawn), 10.8%. As for `Cc1cccc(Nc2nc(N)nc(CSC(=S)N3CCOCC3)n2)c1`, the figure is 0.164%. As for `CCN(Cc1nc(-c2ccccc2)no1)C(=O)COc1cccc(OC)c1`, the figure is 10.1%; as for `Cc1ccc(NCC(=O)c2ccc([N+](=O)[O-])cc2)cc1`, -9.69%; as for `O=C(O)/C=C/C(=O)c1c(-c2ccccc2)[nH]c2ccccc12`, 17.4%. Take `O=C(Nc1ncc(Cc2ccc(SC(F)F)cc2)s1)c1ccccc1`: the “hERG current change (%, negative = inhibition) at 1uM” value turned out to be 15.3%. As for `O=C1C(C=NCCCN2CCCC2=O)=C(O)c2ccccc21`, the figure is 19.3%; as for `CCOc1cc2[nH]c(=S)n(C(C)C)c(=O)c2cc1OCC`, 6.12%. On to `CN(C)C(=O)C(OC(=O)c1ccc2c(c1)CCCC2)c1ccccc1` (stereo not drawn), for which the “hERG current change (%, negative = inhibition) at 1uM” value is 14.6%.

On to `Fc1cccc(Cl)c1Cn1nnc2c(-n3ccnc3)ncnc21`, for which the “hERG current change (%, negative = inhibition) at 1uM” value was 8.45%. The result for `CN(Cc1cnn(C)c1)S(=O)(=O)c1cccc([N+](=O)[O-])c1` reads 13.1%; that for `CCC(Sc1nc2cc3c(cc2c(=O)n1Cc1ccco1)OCO3)C(=O)Nc1cccc(OC)c1` (stereo not drawn), -2.71%. Regarding `Cc1sc2ncnc(OCC(=O)c3ccc(S(=O)(=O)N4CCCC4)cc3)c2c1C`, the “hERG current change (%, negative = inhibition) at 1uM” value worked out at 5.91%. The result for `CCC1CCc2sc(C(=O)O)cc2C1` (stereo not drawn) reads -1.93%.

For the molecule `CC(C)CNS(=O)(=O)c1cc(C(=O)OCC(=O)N2CCOCC2)c(Cl)cc1Cl`, the “hERG current change (%, negative = inhibition) at 1uM” value worked out at 8.83%. As for `CCn1cnnc1SCC(=O)NCC1COc2ccccc2O1` (stereo not drawn), the figure is 16%; as for `CCn1c(SCC(=O)Nc2ccc(F)cc2)nc2ccccc2c1=O`, 8.8%; as for `O=C(CNC(=O)c1ccc(OC(F)F)cc1)NC1CCCc2ccccc21` (stereo not drawn), -6.84%.

`Nc1nc(SCC(=O)NC2CCCc3ccccc32)n[nH]1` (stereo not drawn): the “hERG current change (%, negative = inhibition) at 1uM” value stood at 0.283%. The result for `O=C(O)c1cc(NN=Nc2ccc(Br)cc2)cc([N+](=O)[O-])c1` reads 9.75%; that for `COc1ccc(C(=O)NNC2=NC(C)(C)Cc3ccccc32)cc1`, 11.7%. As for `CCOC(=O)c1cnc(SC2CC(=O)N(c3cccc(OC)c3)C2=O)nc1N` (stereo not drawn), the figure is 11.3%; as for `CCCc1cc(=O)oc2c(C)c(OCC(=O)Nc3cccnc3)ccc12`, -38.7%. As for `CCOc1ccccc1CN1CCN(C2CCOCC2)CC1CCO` (stereo not drawn), the figure is 8.63%; as for `COc1ccc(S(=O)(=O)NCCCCCC(=O)NCCCN2CCOCC2)cc1`, -1.78%. For the molecule `CC(C)[C@H](NC(=O)CCCn1nnc2ccccc2c1=O)C(=O)O`, the “hERG current change (%, negative = inhibition) at 1uM” value is 13.1%. The result for `COc1cc(/C=C2\SC(N3CCCCC3)=NC2=O)cc(OC)c1OC` reads 11.4%. The result for `COc1ccc(-n2c(=S)[nH]c3ccccc3c2=S)cc1` reads 14.5%. Regarding `CN(C)CCNC(=O)COc1cccc(Cl)c1`, the “hERG current change (%, negative = inhibition) at 1uM” value came to 8.77%. As for `CC(C)(C)NC(=O)c1ccnc(C(C)(C)C)c1`, the figure is -3.05%; as for `COCCNC(=O)C(c1cccs1)N(Cc1cccs1)C(=O)Cn1nnc2ccccc21` (stereo not drawn), 1.44%. On to `O=C(NCCOC(=O)c1ccncc1)c1ccccc1`, for which the “hERG current change (%, negative = inhibition) at 1uM” value worked out at 5.93%. Consider `CCCCN1C(=O)C(=Nc2cccc3cnccc23)c2ccccc21`, for which the “hERG current change (%, negative = inhibition) at 1uM” value was determined as 2.92%. As for `O=[N+]([O-])c1nn(-c2ccccc2)n(O)c1=NCc1ccc2c(c1)OCO2`, the figure is 7.34%. As for `Cn1c2ccccc2c2c(C(=O)O)cn(C3CCCC3)c(=O)c21`, the figure is 3.19%; as for `Cn1nc(CC(=O)NCCN2C(=O)CSC2=O)c2ccccc2c1=O`, -11%. Consider `CC(CCc1ccccc1)NC(=O)c1ccncc1` (stereo not drawn), for which the “hERG current change (%, negative = inhibition) at 1uM” value was 10.8%. As for `O=C(NC(=O)N1CCN(c2ccc([N+](=O)[O-])cn2)CC1)c1ccccc1F`, the figure is -10.8%. As for `Cc1cc(C)c(NC(=O)CSc2nc3ccccc3c(=O)n2CCCN2CCOCC2)c(C)c1`, the figure is -2.92%; as for `Cc1cccc(NC(=O)c2cc(S(=O)(=O)N(C)c3ccc(F)cc3)ccc2Cl)n1`, -11.1%.
